Results published in PubChem BioAssay AID1508642 (National Center for Advancing Translational Sciences (NCATS), 2021).
About 200 (0.47%) of roughly 43,000 compounds were called active. Roughly 12% stayed inconclusive and do not appear here. Calls follow the shape of the dose curve; as a rule, active = well fitted cell-killing curve with a large enough effect; inconclusive = small, poorly fitted or top-dose-only effect, or effect the other way; inactive = flat fitted curve, though single readings scatter. Some of the results follow.

Assay: Cell viability qHTS assay in S16 Pmp22-F2sN cells; also: nearly all actives have a fitted effect of over 65% in size
Conditions: S16 Pmp22-F2sN Schwann cells viability, CellTiter-Glo, 24 h; series mostly up to 57.5 µM; activity change, negative = cytotoxicity: at the top concentration
How it was run: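 Viability was measured by CellTiter-Glo luminescence (15 min, room temperature). This followed 24 h at 37 °C of compound exposure (23 nL pin transfer) in S16 Pmp22-F2sN Schwann cells, 500-1,000 per well.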
% is scaled to controls: 0 for no effect and ±100 for the full control effect; potency is read from the fitted curve at half-maximal effect.

SMILES | activity change, negative = cytotoxicity | Potency
COc1ccc(CCNC(=O)c2cc3c(=O)n4cccc(C)c4nc3n2C)cc1 | inactive: 4.59% | –
Cc1cc(C)cc(-n2ccn(CC(=O)NCCc3ccccc3)c(=O)c2=O)c1 | inactive: -2.1% | –
COc1cc2c(cc1OC)C(COc1ccc3c(C)cc(=O)oc3c1)N(C(=O)Cc1ccc(F)cc1)CC2 (stereo not drawn) | inactive: -0.0572% | –
CCn1c(=O)c2cc(C(=O)Nc3cccc(C(F)(F)F)c3)sc2c2ccccc21 | inactive: -3.73% | –
COc1ccc(C(=O)Nc2ccc(-c3nc4ncccc4o3)cc2C)cc1Br | inactive: 12.9% | –
CCNC(=O)CCCN1C(=O)CCn2nc(-c3cccn3C)cc21 | inactive: 5.24% | –
Cc1ccc(CNC(=O)CSCc2ccccc2C)cc1 | inactive: 1.54% | –
Cc1ccc2nc(NCc3ccccc3)c3nncn3c2c1 | inactive: 4.19% | –
CCn1cc(C(=O)NCCc2ccc(Cl)cc2)c(=O)c2cc(S(=O)(=O)N(C)C3CCCCC3)ccc21 | inactive: 2.16% | –
O=S(=O)(c1ccc(C2CCCCC2)cc1)N1CCN(c2cc(Cl)ccc2Cl)CC1 | inactive: 10.1% | –
CCC(Sc1nc2nccnc2c(=O)n1Cc1ccccc1Cl)C(=O)NC1CCCCC1 (stereo not drawn) | inactive: -5.05% | –
Fc1ccc(CNCCCSc2nnnn2-c2ccccc2)cc1 | inactive: 1.48% | –
COc1ccc(NC(=O)CSCc2cc(=O)c3cc(C)ccc3[nH]2)cc1 | inactive: 1.86% | –
COc1ccc(CCCc2nnc(SCC(=O)Nc3cc(F)ccc3C)o2)cc1 | inactive: 8% | –
COc1cc(Cl)c(C)cc1NC(=O)CC1Oc2ccccc2NC1=O (stereo not drawn) | inactive: 11.4% | –
CCOc1ccc(CNC(=O)c2ccc3c(Cl)c4c(nc3c2)CCCC4)cc1 | inactive: 16.6% | –
COc1ccc(Cl)cc1NC(=O)CSc1nc(=O)n(Cc2ccco2)c2c1CCC2 | inactive: -3.55% | –
Cc1ccc(-n2ncc3c(Nc4ccc(Oc5ccccc5)cc4)ncnc32)c(C)c1 | inactive: 0.167% | –
COc1ccc(OC)c(-c2noc(CSc3nnc(-c4ccccc4)n3-c3ccccc3)n2)c1 | inactive: -14.7% | –
Cc1ccc(OCC(=O)Nc2nnc(S(=O)(=O)N3CCc4ccccc43)s2)cc1 | inactive: 4.1% | –
COc1ccc(N2CCN(S(=O)(=O)c3ccc(C4CCCCC4)cc3)CC2)cc1 | inactive: -9.42% | –
CCOC(=O)c1ccccc1NC(=O)c1cn(CC(C)C)c(=O)c2cc(OC)c(OC)cc12 | inactive: 12.1% | –
Cc1nc2ncnn2c(C)c1CCC(=O)N1CCN(c2ccc(F)cc2)CC1 | inactive: 12% | –
Cc1cccc(C(=O)NCCc2nc3ccccc3n2Cc2ccccc2Cl)c1 | inactive: -3.41% | –
Cc1ccc(NC(=O)Nc2nnc(SCC(=O)N3CCCCC3)s2)cc1 | inactive: -18.1% | –

SMILES | activity change, negative = cytotoxicity | Potency
COc1cccc(N2CC(NC(=O)c3cc4ccccc4o3)CC2=O)c1 (stereo not drawn) | inactive: 3.43% | –
Fc1ccc(-c2noc3ncnc(NCCc4ccc(Cl)cc4)c23)cc1 | inactive: -10.7% | –
CC(C)c1ccc2c(c1)NC(c1ccc(F)cc1)=NC(c1cccs1)=N2 | inactive: -0.964% | –
CC(C)c1noc(-c2ccccc2OCC(=O)Nc2ccc([N+](=O)[O-])cc2)n1 | inactive: 7.45% | –
COc1ccc(OC)c(C2C(C(=O)Nc3ccc(C)cc3C)=C(C)Nc3c(C(=O)Nc4ccc(F)cc4)cnn32)c1 (stereo not drawn) | inactive: -21.1% | –
CCn1c2c(c(=O)n3ncc(C(=O)N4CCN(c5ccccc5)CC4)c13)CN(Cc1ccc(OC)cc1)CC2 | inactive: -11.5% | –
Cc1cc(=O)n(Cc2cccc(Cl)c2)c2c1c(C)nn2C | inactive: -13.4% | –
CCOC(=O)CCc1c(C)nc2c(-c3ccccc3)c(C)[nH]n2c1=O | inactive: 2.76% | –
O=C(CSc1nnc(-c2ccncc2)n1-c1ccccc1)Nc1ccc(F)cc1 | inactive: 8.63% | –
CCOc1ccccc1CNC(=O)CSc1n[nH]c(-c2ccccc2)n1 | inactive: 1.35% | –
COc1cccc(NC(=O)CSc2nc(=O)n(Cc3cccnc3)c3c2CCC3)c1 | inactive: -16% | –
Cc1cccc2c(=O)cc(CSc3ccccc3NC(=O)C(C)C)[nH]c12 | inactive: -12.4% | –
CCCCOc1cccc(C(=O)Nc2sc3c(c2C(=O)OCC)CCCC3)c1 | inactive: 1.62% | –
CCOc1ccc(-n2c(SCc3ccccc3)nc3c([nH]c4ccccc43)c2=O)cc1 | inactive: 2.43% | –
COc1ccc(OCC(=O)Nc2ccc(-c3nc4cc(Cl)ccc4o3)cc2)cc1 | inactive: 6.03% | –
CCOc1ccc(CNC(=O)c2ccc3c(c2)c(C)c(C)n3C)cc1 | inactive: -6.38% | –
CCCN(CCC)C(=O)Cn1c(=O)n(-c2ccc(OC)cc2OC)c(=O)c2c3c(sc21)CCC3 | inactive: 12.7% | –
COc1ccc(CCNC(=O)CCCCn2c(=O)c3ccccc3n(Cc3cc(C)ccc3C)c2=O)cc1OC | inactive: -0.487% | –
CCOC(=O)c1cccnc1SCC(=O)N(CC)c1cccc(C)c1 | inactive: -1.16% | –
NC(=O)c1nc(Nc2ccccc2)sc1NC(=O)c1c(F)cccc1F | inactive: -12.2% | –
CCOC(=O)c1ccc(NC(=O)c2c(NCc3sccc3C)sc3c2CCC(C)C3)cc1 (stereo not drawn) | inactive: -6.96% | –
Cc1ccc(C)c(N2CCN(C(=O)CCc3nnc4n(C)c(=O)c5ccccc5n34)CC2)c1 | inactive: 18% | –
CN1CCN(C(CNC(=O)C(=O)Nc2ccc(Cl)cc2)c2cccnc2)CC1 (stereo not drawn) | inactive: -4.83% | –
CCOCCCNC(=O)c1c[nH]c2ccc(S(=O)(=O)N(C)c3ccc(Cl)cc3F)cc2c1=O | inactive: 2.34% | –
CCc1ccccc1NC(=O)c1oc(=O)c2ccccc2c1-c1ccccc1 | inactive: 7.44% | –

SMILES | activity change, negative = cytotoxicity | Potency
CC(C)(C)c1ccc(OCC(=O)Nc2ccc(C(=O)OC3CCCCC3)cc2)cc1 | inactive: -4.3% | –
COc1ccc(F)cc1S(=O)(=O)NCC(c1ccco1)S(=O)(=O)c1cccs1 (stereo not drawn) | – | active: 12.6 µM
CC(=O)N1c2ccccc2C(=O)C1N1CCN(c2ccc(Cl)cc2)CC1 (stereo not drawn) | inactive: 14.1% | –
COc1ccc(NCc2cc3cc4c(cc3n(CC(=O)Nc3ccc(C)cc3C)c2=O)OCO4)cc1 | inactive: 13.9% | –
CCOc1c(Br)cc(C2C=C(C(=O)O)Nc3ncnn32)cc1OC (stereo not drawn) | inactive: 5.08% | –
O=C(NCc1ccccc1)c1cc(Sc2cccc(Cl)c2)nc2ccccc12 | inactive: 13% | –
CCOC(=O)c1cc(OC(=O)c2ccccc2F)n(-c2ccccc2)n1 | inactive: 0.13% | –
CC1=C(c2ccc(C(C)C)cc2)S(=O)(=O)N=C1N1CCN(c2ccccc2F)CC1 | inactive: 1.79% | –
Cc1ccc(-c2nc(S(=O)(=O)c3ccc(F)cc3)c(N3CCN(c4ccccc4)CC3)o2)cc1 | inactive: -7.42% | –
CC(C)C[C@H](N)c1nnc(SCc2ccc(Cl)cc2Cl)o1 | inactive: 4.72% | –
CCOC(=O)C1CCCN(S(=O)(=O)c2cc(-c3onc(C)c3C)ccc2OC)C1 (stereo not drawn) | inactive: -2.75% | –
CCOc1ccccc1NC(=O)c1nc(S(=O)(=O)Cc2cccc(C)c2)ncc1Cl | – | active: 3.16 µM
COc1ccc(S(=O)(=O)N(CC(=O)NCCSc2ccc(C)cc2)c2ccc(C)cc2)cc1 | inactive: 12.2% | –
CCOc1ccccc1NC(=O)CSc1c2c(nc3ccc(Cl)cc13)CCCC2 | inactive: -0.351% | –
CC(=O)N1CCC(N(Cc2ccc(C)o2)C(=O)Nc2ccccc2F)CC1 | inactive: 11.7% | –
Cc1nc2c(c(C)c1CCC(=O)NCc1ccc(F)cc1)c(=O)n(C)c(=O)n2C | inactive: -16.5% | –
CC1CCc2onc(C(=O)Nc3ccc(Cl)cc3)c2C1 (stereo not drawn) | inactive: 3.4% | –
COc1ccc(-c2noc(CNC(=O)c3cc(OC)c(OC)c(OC)c3)n2)cc1 | inactive: 6.99% | –
COc1cccc(-c2nc(-c3ccc(Br)o3)no2)c1 | inactive: -0.078% | –
Cc1[nH]c2ccc(C(=O)NCCCN3CCCCC3)cc2c1C | inactive: 7.22% | –
Cc1cc2c(cc1S(=O)(=O)N(CCN(C)C)Cc1ccccc1)OCC(=O)N2 | inactive: 19% | –
COC(=O)c1ccc(NC(=O)c2c(NCc3cccc(F)c3)sc3c2CCCC3)cc1 | inactive: 17.7% | –
COc1ccccc1C(c1c(O)cc(C)n(Cc2ccco2)c1=O)N1CCCCC1 (stereo not drawn) | inactive: 1.46% | –
CCC(Oc1ccccc1F)C(=O)Nc1cc(-c2ccccc2)no1 (stereo not drawn) | inactive: 2.15% | –
COc1ccc(C(=O)NCCn2cc(SCC(=O)Nc3ccc4c(c3)OCCO4)c3ccccc32)cc1 | inactive: 9.31% | –

SMILES | activity change, negative = cytotoxicity | Potency
Cc1cccc(N2CCN(S(=O)(=O)c3cc(C(=O)Nc4ccc(Oc5ccccc5)cc4)ccc3F)CC2C)c1 (stereo not drawn) | inactive: -18.6% | –
COc1ccc(CNC(=O)Cn2c(=O)c3cccn3c3cccnc32)cc1 | inactive: 0.924% | –
COc1ccc(C(=O)Nc2nnc(SCc3cc(=O)c4cc(C)ccc4[nH]3)s2)cc1OC | inactive: -0.169% | –
Cc1cccn2c(=O)c(C(=O)N3CCN(c4ccccc4F)CC3)cnc12 | inactive: -6.06% | –
Cc1nn(-c2ccccc2)c2sc(C(=O)Nc3ccc(Cl)cc3Cl)cc12 | inactive: -5.56% | –
CCCCN(C)CCNC(=O)c1nn(-c2ccc(OC)c(Cl)c2)c(=O)c2c1c1ccccc1n2C | inactive: 12.1% | –
Cc1cc(C)c(S(=O)(=O)NCc2ccc3c(c2)CCN3C(=O)c2ccccc2)c(C)c1 | inactive: -21.2% | –
CCN(CC)c1ccc2cc(-c3nnc(Nc4ccc(C)cc4)s3)c(=O)oc2c1 | inactive: -3.38% | –
COC(=O)C1=C(CS(=O)(=O)c2ccc(C)cc2C)NC(=O)NC1c1ccc(C)cc1 (stereo not drawn) | inactive: -5.04% | –
Cc1ccc(NC(=O)CSCc2cnn(-c3ccccc3)c2-n2cccc2)c(C)c1 | inactive: -20.5% | –
CCOc1cccc2sc(N(Cc3cccnc3)C(=O)C3CCCCC3)nc12 | inactive: 2.42% | –
CCc1ccccc1NC(=O)c1ccc(F)c(S(=O)(=O)NC2CCCCCC2)c1 | inactive: 14.8% | –
COc1ccc(C)cc1NCc1nnc2n1CCCCC2 | inactive: 5.88% | –
O=C(CCCCn1c(=O)c2ccccc2n(Cc2ccc(Cl)cc2)c1=O)NCc1ccccc1Cl | inactive: -4.31% | –
COc1ccc(-c2cc(C(=O)Oc3cccc(C)c3)c3ccccc3n2)cc1 | inactive: 1.59% | –
COc1ccc(NC(=O)C2CCCN(C(=O)c3cnn(-c4ccc(F)cc4)c3-n3cccc3)C2)cc1 (stereo not drawn) | inactive: 12.1% | –
COc1ccc(NC(=O)CSc2nc3ncccc3[nH]2)c(OC)c1 | inactive: 0.632% | –
Cn1c(=O)cc(OCC(=O)N2CCN(c3ccccc3)CC2)c2ccccc21 | inactive: 1.03% | –
CN1CCN(C(c2ccccc2Cl)c2sc3nc(-c4ccco4)nn3c2O)CC1 (stereo not drawn) | inactive: 0.28% | –
CCC(=O)N1CCc2cc(Br)cc(S(=O)(=O)N3CCN(c4ccc(C(C)=O)cc4)CC3)c21 | inactive: -1.84% | –
Cc1ccc2ncc(C(=O)NCc3ccccc3Cl)c(=O)n2c1 | inactive: -15.3% | –
CC(=O)Nc1ccccc1-c1nc2ccccc2n(CC(=O)c2ccc(C)c(C)c2)c1=O | inactive: -1.58% | –
CCCS(=O)(=O)c1ncc(Cl)c(C(=O)N2CCN(c3ccc(OC)cc3)CC2)n1 | – | active: 5.01 µM
